Measurements reported in PubChem BioAssay AID624170 (National Center for Advancing Translational Sciences (NCATS), 2012).
“And” between values parts separate entries of the source, which are not always exact repeats. Equal entries are not always repeated. About 850 (0.21%) of roughly 410,000 compounds were called active. This list was built around the results that the source calls inconclusive (neither active nor inactive); the mix of calls is not that of the screen. Calls come from the whole dose curve; as a rule, active = well fitted inhibition curve with a large enough effect; inconclusive = small, poorly fitted or top-dose-only effect, or another doubt; inactive = no such curve, though single readings can be large or run the other way. A potency beside an inconclusive call is a rough fit, not a confirmed value.

The compounds below were run against Glutaminase kidney isoform, mitochondrial (Homo sapiens) (UniProt O94925) (assay: qHTS for Inhibitors of Glutaminase (GLS)). Conditions: GLS enzymatic activity, qHTS titration; series mostly up to 45.5 µM; activity change, negative = inhibition: at the top concentration.
Sequence of UniProt O94925 (O94925 whole entry, looked up, canonical isoform): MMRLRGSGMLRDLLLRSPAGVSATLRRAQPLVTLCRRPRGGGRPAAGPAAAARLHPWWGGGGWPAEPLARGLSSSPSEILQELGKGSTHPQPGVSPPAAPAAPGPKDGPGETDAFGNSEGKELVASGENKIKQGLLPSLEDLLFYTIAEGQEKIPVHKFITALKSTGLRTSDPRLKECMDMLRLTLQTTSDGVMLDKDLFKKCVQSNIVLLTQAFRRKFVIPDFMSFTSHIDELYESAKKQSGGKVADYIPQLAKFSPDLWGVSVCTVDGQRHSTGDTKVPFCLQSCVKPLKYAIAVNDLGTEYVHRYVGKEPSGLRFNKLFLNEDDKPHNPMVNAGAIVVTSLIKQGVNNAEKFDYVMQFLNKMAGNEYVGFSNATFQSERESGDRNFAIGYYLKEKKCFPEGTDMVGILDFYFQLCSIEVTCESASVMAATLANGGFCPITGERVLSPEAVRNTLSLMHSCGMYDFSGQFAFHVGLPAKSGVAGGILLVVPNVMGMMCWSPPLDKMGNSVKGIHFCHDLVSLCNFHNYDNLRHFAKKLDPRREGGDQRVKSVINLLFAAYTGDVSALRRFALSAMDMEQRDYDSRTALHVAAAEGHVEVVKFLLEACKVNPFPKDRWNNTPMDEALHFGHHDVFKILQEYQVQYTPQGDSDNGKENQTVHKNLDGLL
How it was run: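 Two-point fluorescence kinetic (t0, 30 min RT) for hKGA; glutamate detected via glutamate oxidase–HRP–Amplex Red. Substrate: 1 mM L-glutamine solution; buffer 45 mM KH2PO4, pH 8.2.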
% is set by controls: 0 for no effect and ±100 for the full control effect; potency is the fitted concentration of half-maximal effect; tags give direction and shape of the fitted curve.

Compound | Potency | activity change, negative = inhibition
O=c1cc(-c2ccc(O)cc2)oc2cc(O)c(C3OC(CO)C(O)C(O)C3O)c(O)c12 (stereo not drawn) | inconclusive: 12.6 µM [inhibitor, single point] | 
COc1ccc2cc(/C=C3\SC(=S)NC3=O)c(N3CCOCC3)nc2c1 | inconclusive: 35.5 µM [inhibitor, single point] | 
O=S(=O)(c1ccc(Br)cc1)c1nc(-c2ccco2)oc1NCC1CCCO1 (stereo not drawn) |  | inactive: -6.17%
COc1ccc(NC(=O)c2cc(-c3ccco3)nc3ccccc23)cn1 | inconclusive: 12.6 µM [inhibitor, single point] | 
O=c1c2ccccc2nc(CSc2nnnn2-c2ccccc2)n1-c1ccccc1 | inconclusive: 0.0891 µM [inhibitor, full curve, poor fit] | 
CCOc1ccc(-c2nnc(SCC(=O)NCc3ccccc3)nc2-c2ccc(OCC)c(OC)c2)cc1OC | inconclusive: 3.16 µM [inhibitor, single point] | 
Oc1ccccc1N=N/C(=N/Nc1ccccc1O)c1ccccc1 | inconclusive: 15.8 µM [inhibitor, single point] | 
CCN(CC)CCN1CNC(=S)NC1 |  | inactive: 1.61%
CC(=O)c1ccc(NC(=O)CC2Nc3cccc4cccc(c34)NC2=O)cc1 (stereo not drawn) | inactive and inconclusive: 2.24 µM [inhibitor, full curve, poor fit] | 
COC(=O)c1ccc(NCc2c(O)ccc(O)c2Br)cc1Cl | inconclusive: 35.5 µM [inhibitor, single point] | 
CCOC(=O)c1ccccc1NC(=O)Nc1cc2c(cc1N1CCCCC1)n(C)c(=O)n2C |  | inactive: 3.44%
COc1ccc(CN2CCN(Cc3ccco3)CC2)c(OC)c1 |  | inactive: -1.36%
CC(C)Cn1c(-c2csc3ccccc23)n[nH]c1=S | inconclusive: 4.47 µM [inhibitor, partial curve, poor fit] | 
CCC(=O)Oc1ccc(C/C(=N\O)c2ccc(O)cc2O)o1 | inconclusive: 12.6 µM [inhibitor, partial curve, poor fit] | 
COc1ccc(C(=O)NCCSc2ccccc2)cc1OC | inconclusive: 31.6 µM [inhibitor, single point] | 
Cc1c(NC(=O)c2cc(-c3ccc(O)cc3)on2)c(=O)n(-c2ccccc2)n1C | inconclusive: 25.1 µM [inhibitor, single point] | 
COc1ccc(/C=C2\N=C(c3ccccc3)N(c3ccc(C(=O)O)cc3)C2=O)cc1OC | inconclusive: 22.4 µM [inhibitor, single point] | 
C#CCOCCOCCOCCNc1nc(N2CCN(C(=O)CCCCCCCCCCNC(=O)[C@H](CCCCN)n3cc(CCO)nn3)CC2)nc(N2CCN(C(=O)CCCCCCCCCCNC(=O)[C@H](CCCCN)n3cc(CCO)nn3)CC2)n1 | inconclusive: 15.8 µM [inhibitor, single point] | 
NC(=S)NNc1cccc2cccnc12 | inconclusive: 4.47 µM [inhibitor, full curve] | 
O=S(=O)(O)c1cc(O)c2ccc(Nc3ccccc3)cc2c1 | active: 5.01 µM | 
O=C(c1ccco1)N1CCN(C(c2ccccc2Cl)c2nnnn2Cc2cccs2)CC1 (stereo not drawn) |  | inactive: -8.93%
CC(C)C(NS(=O)(=O)c1ccc2c(c1)C(C)(C)C(=O)N2C)C(=O)NCc1ccccc1Cl (stereo not drawn) | inconclusive: 35.5 µM [inhibitor, single point] | 
CN=C1NN=C(c2cc(C)n(-c3c(C)n(C)n(-c4ccccc4)c3=O)c2C)CS1 |  | inactive: -0.183%

Compound | Potency | activity change, negative = inhibition
Cc1ccc(-c2csc3n[nH]c(=S)n23)cc1 | inconclusive: 25.1 µM [inhibitor, single point] | 
c1cc(SSc2ccncc2)ccn1 | inconclusive: 35.5 µM [inhibitor, single point] | 
Cc1ccc(-c2ccc(CCC(=O)O)n2CC(=O)O)cc1 | inconclusive: 35.5 µM [inhibitor, single point] | 
O=C(CCCCn1c(=S)[nH]c2ccsc2c1=O)NCc1ccc2c(c1)OCO2 | inconclusive: 25.1 µM [inhibitor, single point] | 
COc1cccc(NC(=O)c2ccc3c(SCC(=O)O)c4c(nc3c2)CCCC4)c1 | inconclusive: 12.6 µM [inhibitor, partial curve, poor fit] | 
Cc1ccc(C(=O)c2coc3ccc(O)cc23)cc1 |  | inactive: 12.5%
CCCCN(C)CCNC(=O)c1ccc2c(c1)NC(=O)CN2 | inconclusive: 22.4 µM [inhibitor, single point] | 
COc1cc(C2CC(=O)OC3=C2C(=O)CC(C)(C)C3)cc(OC)c1OC (stereo not drawn) | inconclusive: 17.8 µM [inhibitor, partial curve] | 
O=C(CCc1nnc2ccc(NCc3ccccc3Cl)nn12)NCC1CCN(C2CCCC2)C1 (stereo not drawn) | inconclusive: 15.8 µM [inhibitor, single point] | 
CCCC(=O)OCCNc1cc(Sc2nc3ccccc3[nH]2)c2nonc2c1[N+](=O)[O-] | inconclusive: 12.6 µM [inhibitor, single point] | 
CCSc1ccc2cc(OC)ccc2[n+]1CC | inconclusive: 6.31 µM [inhibitor, single point] | 
CCOc1cccc(C=Nc2cc(C)cc(C)c2O)c1O | inconclusive: 35.5 µM [inhibitor, single point] | 
Cc1nn(C(C)C(=O)NC2CCC(C)CC2)c(=O)c2cc3sccc3n12 (stereo not drawn) |  | inactive: 2.82%
CC(=O)N1CCc2cc(Br)cc(S(=O)(=O)N3CCN(c4cccc(C)c4)C(C)C3)c21 (stereo not drawn) |  | inactive: 10.3%
COc1ccc(N2CCN(C(=O)CS(=O)(=O)c3cccc4nsnc34)CC2)cc1 |  | inactive: 20.3%
CSc1ccccc1NC(=O)Cn1nc([N+](=O)[O-])c(Cl)c1C | inconclusive: 17.8 µM [inhibitor, single point] | 
Cc1csc2ncnc(N3CCN(C(=O)Nc4ccc(OC(F)(F)F)cc4)CC3)c12 | inconclusive: 35.5 µM [inhibitor, single point] | 
Cc1c(CC(=O)N[C@H](C(=O)O)C(C)C)c(=O)oc2cc3c(cc12)CCC(C)(C)O3 |  | inactive: -6.91%
CN1N=C(C(C)(C)C)CC1=O | inconclusive: 35.5 µM [inhibitor, single point] | 
O=C(COc1cccc(F)c1)Nc1nc(-c2ccccn2)cs1 | inconclusive: 22.4 µM [inhibitor, single point] | 
CCc1nnc(NS(=O)(=O)c2ccc(NC(=S)NC(=O)c3cccs3)cc2)s1 | inconclusive: 35.5 µM [inhibitor, single point] | 
C=CCn1c(SCC(=O)Nc2ccccc2C)nnc1-c1ccncc1 |  | inactive: 8.26%
O=C(C(=Cc1ccccc1)c1ccccc1)c1ccccc1 |  | inactive: 5.51%

Compound | Potency | activity change, negative = inhibition
Cc1cc(NS(=O)(=O)c2ccc(NC(NC(=O)C(C(F)(F)F)C(F)(F)F)(C(F)(F)F)C(F)(F)F)cc2)no1 |  | inactive: 13.8%
C(=N\Nc1nc2ccccc2[nH]1)/c1cccs1 | inconclusive: 35.5 µM [inhibitor, single point] | 
Cc1cc(=O)oc2cc(OCC(=O)Nc3nnc(C(C)C)s3)ccc12 | inconclusive: 25.1 µM [inhibitor, single point] | 
CC1Cc2ccccc2N1C(=O)COC(=O)CCc1nc2ccccc2c(=O)[nH]1 (stereo not drawn) | inconclusive: 35.5 µM [inhibitor, partial curve, poor fit] | 
O=C(CCCOc1ccccc1)Nc1cccnc1 |  | inactive: -8.9%
COC(=O)CSc1ccc2nnc(-c3ccc(F)cc3)n2n1 |  | inactive: 1.48%
Cc1cccc(C(=O)n2c(=S)nc3ccccn32)c1 | inconclusive: 14.1 µM [inhibitor, single point] | 
Cn1c(=O)[nH]c(=O)c2c1[nH]c(=S)n2CCCc1ccccc1 | inconclusive: 10 µM [inhibitor, partial curve] | 
Cc1ccc2nc3c(nc2c1C)C(O)=C3O | inconclusive: 15.8 µM [inhibitor, single point] | 
Cn1c(C(=O)NC2CCCCCC2)cc2c(=O)n(C)c3ccccc3c21 | inconclusive: 35.5 µM [inhibitor, single point] | 
CCCn1nc(Oc2nc(NC(C)C)nc(N(C)C)n2)ccc1=O | inconclusive: 35.5 µM [inhibitor, single point] | 
COc1cccc(-c2cc(C(F)(F)F)nc(-n3ccc([N+](=O)[O-])n3)n2)c1 |  | inactive: 7.94%
C[C@H](CO)N1C[C@H](C)[C@@H](CN(C)C(=O)Nc2ccc(C(F)(F)F)cc2)Oc2ccc(NC(=O)c3ccncc3)cc2C1=O | inconclusive: 25.1 µM [inhibitor, single point] | 
CCn1c(C)nc([N+](=O)[O-])c1C(=O)O | inconclusive: 35.5 µM [inhibitor, single point] | 
O=C(CN1C(=O)C2(SCC(=O)N2c2ccc(F)cc2)c2ccccc21)NCCc1ccccc1 (stereo not drawn) |  | inactive: 5.27%
O=C(OCc1cn([C@H]2C[C@H](c3ccc(Cl)cc3)N(C(=O)C3CCCCC3)C[C@@H]2O)nn1)c1ccccc1 |  | inactive: 1.03%
COc1cccc(NC(=O)c2cnn(-c3ccccc3)c2C)c1 | inconclusive: 6.31 µM [inhibitor, single point] | 
CCN(CC)c1ccc(/C=N\NC(N)=O)cc1 |  | inactive: 12.2%
COc1ccc(N2CCN(C(CNS(=O)(=O)c3c(C)cc(C)cc3C)c3ccco3)CC2)cc1 (stereo not drawn) |  | inactive: 12%
CCOC1=C/C(=C/c2c(N)n3nc(CC(=O)N4CCCCC4)sc3nc2=O)C=CC1=O | inconclusive: 12.6 µM [inhibitor, partial curve, poor fit] | 
O=C(N/N=C/c1ccncc1)c1cc([N+](=O)[O-])cc([N+](=O)[O-])c1O | inconclusive: 35.5 µM [inhibitor, partial curve, poor fit] | 
COc1cccc(C2Nc3cc(Cl)c(S(N)(=O)=O)cc3S(=O)(=O)N2)c1 (stereo not drawn) |  | inactive: 7.71%
